Test results published in the RNAGym collection of RNA variant scans (doi:10.7554/elife.90254).
The source gives no read counts; variants with many changes may rest on few reads.

B1: LINE1-mini (parent)
chain: GGCAGAGCUCAACACAGCGUGGCAAAGUGGCUGUGGCUAGACUGCC

Variants of: B1
Test: self-cleavage, relative activity (ratio to wild type); higher = more cleavage; in vitro, sequencing; the parent is a self-cleaving ribozyme

Variant | self-cleavage
GGCAGAACUCAACACAGCGUGGCAAAUUGGCUGUGGCUAGACUGCA | 0.29
GGCAGAACCCAUCACAGCGUGGCAAAGUGGCUGUGGCUAGACUGCC | 0.02
GGCAGAACGCAACACAGCGUGGCAACGUGGCUGUGGCUAGACUGCC | 0.26
GGCAGAACUCAACACAGAGUGGCAAAGUGGCUGUGGCAAGACUGCC | 0.21
GGCAGAACUCAACACAGCGUGGCAAAGUGGCUGUGGCCAUACUACC | 0.15
GGCAGAACUCAACACAACGUGGCAAAGUGGCUGUGGCUUGAGUGCC | 0.05
GGCAGAACUCAACACAGCGUUGCAAAGUGGCUGUGGCUAAAAUGCC | 0.27
GGCAGACCUCAUCACAGCGUGGCUAAGUGGCUGUGGCUAGACUGCC | 0.1
GGCAGAACUCAACACACCGUGGCAACGUGGUUGUGGCUAGACUGCC | 0.04
GGCAGAACUCAACAUAGCGUGGCAAAGUGGCUGUGGCUAGACCGCC | 0.26
GGCAGACCUCAGCUCAACGUGGCAAAGUGGCUGUGGCUAGACUGCC | 0.04
GGCAGAACGCAACACAGCGUGGCAAAGUGGCUAUGGCUAGACUGCU | 0.05
GGCAGAACUCAACACAUCGUGGCAAAGUGGCUGUGGCUAGACCGCC | 0.3
GGCAGAACUCAACACAGCGUCGCAAAUUGGCUGUGGCUUGACUGCC | 0.27
GGCAGAACUCAACACAGCGUGGCAAAGUUGCUGUGUCUGGACUGCC | 0.02
GGCAGAACUCAACACAGCGUGGCAAAGUUGCUGUGUCUUGACUGCC | 0.24
GGCAGAACACAACACAGCGUGGCAAAGCGGCUGUGGCUAGACUGCC | 0.1
GGCAGACCUCAACUCAGCGUGGCAAAGUGGCUGGGGCUAGACUACC | 0.01
GGCAGAACUCAACACAGCCUGGCAAAGUGGCUGUGGCUUGACUGCC | 0.33

Variant | self-cleavage
GGCAGAACUCAACACAGCGUGGCAAAGUGACUGUGGCUUGACCGCC | 0.18
GGCAGAACUCAACACAGCGUGGCAAACUGGCGGUGGCUAGACUUCC | 0.05
GGCAGACCUCAACACAGCGUGGCCAAGUGGCUGUGGCUAGACUCCC | 0.04
GGCAGACCUCAACACAGCGUGGCAUAGUGGAUGUGGCUAGACUGCC | 0.03
GGCAGACCUCAUCACAGCGUGGCAAAGUGGCUGUUGCUAGACUGUC | 0.08
GGCAGAACUCAACACAGCUUGGCAGAGUGGCUGUGGCUAGACUGCU | 0.18
GGCAGAACACGACACUGCGGGGCAAAGUGGGUGUGGCUAGACUGCA | 0.05
GGCAGAACCCAACACAGCGUGGCAAUGUGGCUGUGGCUAGACUGCC | 0.19
GGCAGAACUCAACACAGAGUGGCAAAGUGGCUGUUGCUAGACUGCC | 0.03
GGCAGAACUCAACACAGCGUGGCAAAGUGGCUGUGGCUAUACUGCU | 0.11
GGCAGAACUCAACACAGCGUGGCAAAUUGGCUGUGGCCAGACUGCC | 0.11
GGCAGACCUCUACACAGCGUGGCAAAGUGGACGUAGCUAGAGAGCC | 0
GGCAGAACUCAACACAGCGUUGCAAAGUGGCUGUGGCUAGAUUGCC | 0.62
GGCAGAACUCAACACAGAGUCGCAAAGUGGCUGUGGCUAGACUGCC | 0.08
GGCAGAACUCAACACAGCGUGGCAAAGUGGUUGUGGGUAGACUGCC | 0.01
GGCAGAACGCCACACAGCGUGGUGAAGUGGCUGUGGCUAGACUGCC | 0.01
GGCAGAACACAACACAGCGUGGCAAAGUGGCUGUGGCUAGUCUGCC | 0.13
GGCAGAACUCAACACAGCGUCACAAAGUGGCUGUGGCUAGACUGCC | 0.04
GGCAGAACACAACACAGCGUGGCAAAGUGGCUAUUGCUAGACUGGC | 0.13

Variant | self-cleavage
GGCAGACCUCAACACCGCGUGGCAAAGAGGCUGUGGCUAGACUGCC | 0
GGCAGACCUCAACACAGCGUGGCACAGUUGCUGAGGAUAGACUGCC | 0.06
GGCAGAACUCAACACACCGUGGCAGAGUGGCUGUGGCUAGACUGCC | 0.01
GGCAGACCUCAACACAGCGUGGCAUAGUGGCUGUGGCUAGACUACC | 0.07
GGCAGAACUCAACACAGCGUGGCAAAGUGGCUAUGGCUAGACUGAG | 0.04
GGCAGAACACAGUACAGCGUGACAAAGUGGCUGUGGCUAGACUGCC | 0.03
GGCAGAACGAAACACAGCGUGGCAAAGUGGCAGUGGCUAGACUGCC | 0.01
GGCAGAACUCAACACAGAGUGGCAAGGUGGCUGUGGCUAGAUUGCC | 0.07
GGCAGAACUCAACACAGCGUGGCAAAGGGGCUGUGGUUAGACUGCC | 0.04
GGCAGAACUCAACACAGCAUGGCAAAGUGGCUGUUGCUAGACUGCC | 0.55
GGCAGAACUCAACACAGCGUAGCAAACUGGCUGUGGCUAGACUGCC | 0.1
GGCAGAACGCCACACAGCGUGGCAAAGUGGCUCUGGCUAGACUGCC | 0.03
GGCAGAACCCAAGACAGCGAGGCAAAGUGGCUGUGGCUAGACUGCC | 0.02
GGCAGAACGCAACACAGCGUGGCAAAGUGGCUGUGGCUAGCCUGCC | 0.03
GGCAGAACUCAACACAGAGUGGCAAAAUGGCUGUGGUUAGACUGCC | 0.14
GGCAGACCUCAACGCAGCGUGGCACAGUGACUGUGGCUAGACUGCC | 0.07
GGCAGAACUCAACACAGCGUGUCAAAGUGGUUGAGGCUAGACUGCC | 0.03
GGCAGACCUCAGCACAGCGUGGCAAAUUGGCUGUGGCUAGACUGCC | 0.02
